Data published in PubChem BioAssay AID488969 (Vanderbilt High Throughput Screening Facility, 2010).
Whole data set: some 110,000 compounds, median “z-score” near -0.1, cut for the highest 2% near 2. The list shows a part of the results.

What follows are compounds tested against Metabotropic glutamate receptor 8 (Rattus norvegicus) (UniProt P70579) (assay: mGluR8 Gi/Go-coupled signaling modulation – cell-based, rat, thallium flux, HTS, primary screen (AID 488969)). Conditions: HEK293 rat mGluR8, GIRK (G protein-gated inwardly rectifying potassium channel) thallium flux, FluoZin2; at 10 µM; stronger effect = higher value; submaximal glutamate (EC20) added with thallium.
Sequence of UniProt P70579 (P70579 whole entry, looked up): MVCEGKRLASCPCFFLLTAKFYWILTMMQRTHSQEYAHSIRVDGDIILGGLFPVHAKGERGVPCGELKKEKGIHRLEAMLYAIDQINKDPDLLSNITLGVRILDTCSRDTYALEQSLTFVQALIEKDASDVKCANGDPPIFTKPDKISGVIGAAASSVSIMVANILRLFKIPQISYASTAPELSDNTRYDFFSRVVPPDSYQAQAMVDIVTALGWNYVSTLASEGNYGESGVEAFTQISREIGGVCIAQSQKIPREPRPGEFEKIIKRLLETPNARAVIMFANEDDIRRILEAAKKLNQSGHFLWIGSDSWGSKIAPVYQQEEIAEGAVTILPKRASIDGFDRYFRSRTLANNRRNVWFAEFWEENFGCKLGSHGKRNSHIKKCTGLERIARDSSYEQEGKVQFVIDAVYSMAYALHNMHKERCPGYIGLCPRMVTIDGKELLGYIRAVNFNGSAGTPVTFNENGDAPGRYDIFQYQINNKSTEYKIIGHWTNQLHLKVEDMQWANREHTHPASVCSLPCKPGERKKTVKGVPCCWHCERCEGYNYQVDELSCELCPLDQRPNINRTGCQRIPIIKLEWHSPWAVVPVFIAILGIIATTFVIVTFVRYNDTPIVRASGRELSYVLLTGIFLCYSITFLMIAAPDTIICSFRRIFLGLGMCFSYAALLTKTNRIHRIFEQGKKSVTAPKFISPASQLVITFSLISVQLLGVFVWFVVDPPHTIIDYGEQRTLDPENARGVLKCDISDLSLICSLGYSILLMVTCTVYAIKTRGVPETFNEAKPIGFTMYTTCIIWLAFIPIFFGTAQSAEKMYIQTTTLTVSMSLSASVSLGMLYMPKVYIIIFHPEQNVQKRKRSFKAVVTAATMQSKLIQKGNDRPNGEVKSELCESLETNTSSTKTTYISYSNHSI

SMILES | z-score
O=C1N=c2ccccc2=C1c1[nH]c(=S)[nH]c1O | 0.0533
COc1ccccc1-n1cnc2cc(NS(=O)(=O)c3ccccc3)ccc21 | -0.582
O=C(c1sc2ccccc2c1Cl)N(Cc1ccccc1Cl)C1CCS(=O)(=O)C1 (centres undefined) | 0.26
CCOC(=O)N1CCN(S(=O)(=O)c2cc(Cl)c(OC)cc2Cl)CC1 | -0.748
Cc1ccc(OCCOC(=O)Nc2ccccc2)cc1 | -0.215
O=C/C(=C\Nc1ccccn1)c1nc2cc(Cl)ccc2o1 | 0.215
COc1ccc(C)cc1NC(=O)C(OC(=O)c1ccc(Cl)c(S(=O)(=O)N(C)c2ccccc2)c1)c1ccccc1 (centres undefined) | -0.0112
CCCNC(=O)Cn1cnc2sc(C(=O)Nc3cc(OC)c(OC)c(OC)c3)c(C)c2c1=O | -0.201
O=C(NCc1ccc(Cl)cc1)C(=O)NCC1OCCN1C(=O)c1cccs1 (centres undefined) | -0.152
O=C(NCC(F)(F)F)Nc1cccnc1 | -0.185
COc1ccc(S(=O)(=O)N(C)CC(=O)NC2CCCC2)cc1Cl | 0.335
CCCS(=O)(=O)c1nc(S(=O)(=O)c2ccc(C)cc2)c(N2CCCC2)s1 | -0.157
O=C(COc1ccc(Cl)cc1)NCCSc1ccccc1 | 0.915
Nc1nc2n(n1)C(c1ccccc1Cl)CC(c1ccc(F)cc1)N2 (centres undefined) | 0.896
Cc1ccc(N2C(=O)C(c3c(C)[nH]n(-c4ccccc4)c3=O)(C(F)(F)F)C3=C2CC(C)(C)CC3=O)cc1 (centres undefined) | -0.207
CCCN(CCC)C(=O)c1ccc2c(c1)OCO2 | 0.0999
CCCCn1c(=O)[nH]c(=O)c2c1nc(-c1ccsc1)n2Cc1ccccc1 | -0.249
O=C(Nc1ccccc1)c1cc(N2CCOCC2)nc2ccccc12 | -0.137
CCc1nnc(NC(=O)/C=C/c2ccco2)s1 | -0.152
COCCSc1ccccc1C(=O)N1CCOCC1 | 0.38
CC1CCN(S(=O)(=O)c2cccc(C(=O)NCc3ccco3)c2)CC1 | -0.129
COc1ccc(C(=O)c2coc3ccc(O)c(CN4CCOCC4)c23)cc1 | -0.853
COc1ccccc1CNC(=O)COC(=O)[C@H](Cc1c[nH]c2ccccc12)NC(=O)c1cccs1 | -0.482
Cc1cc(C)n(-c2ccc(C(=O)OCC(=O)Nc3ccc(S(=O)(=O)N4CCCCC4)cc3)cc2)n1 | -0.00692
O=C(COC(=O)c1c2c(nc3ccccc13)CCCC2)c1cccs1 | -0.823
COc1ccc(S(=O)(=O)N(Cc2ccccc2)Cc2nc3ccccc3c(=O)[nH]2)cc1 | -0.148
COc1cccc(C(=O)CSc2nc3ccccc3n2CC(=O)N(C(C)C)C(C)C)c1 | 0.641
COc1ccc(NS(=O)(=O)c2cc(OC)ccc2NC(=O)c2cc(C)oc2C)cc1 | -0.812
c1cc(C2CCCCC2)ccc1Oc1nc(N2CCOCC2)nc(N2CCOCC2)n1 | -0.518
